In all, about 33,000 sequences were measured (“E-score (-0.5 to 0.5)”: median about -0.043, highest 2% from about 0.37 on). This is one part of the list.
molecular target: T1, Upc2 (UniProt Q12151); test: PBM E-score (8-mer binding enrichment) (E-score (-0.5 to 0.5)); higher = stronger / more preferred TF binding; most listed sequences are background and not binding sites; conditions: protein concentration: 200 nM; construct: GST-full length
T1 sequence: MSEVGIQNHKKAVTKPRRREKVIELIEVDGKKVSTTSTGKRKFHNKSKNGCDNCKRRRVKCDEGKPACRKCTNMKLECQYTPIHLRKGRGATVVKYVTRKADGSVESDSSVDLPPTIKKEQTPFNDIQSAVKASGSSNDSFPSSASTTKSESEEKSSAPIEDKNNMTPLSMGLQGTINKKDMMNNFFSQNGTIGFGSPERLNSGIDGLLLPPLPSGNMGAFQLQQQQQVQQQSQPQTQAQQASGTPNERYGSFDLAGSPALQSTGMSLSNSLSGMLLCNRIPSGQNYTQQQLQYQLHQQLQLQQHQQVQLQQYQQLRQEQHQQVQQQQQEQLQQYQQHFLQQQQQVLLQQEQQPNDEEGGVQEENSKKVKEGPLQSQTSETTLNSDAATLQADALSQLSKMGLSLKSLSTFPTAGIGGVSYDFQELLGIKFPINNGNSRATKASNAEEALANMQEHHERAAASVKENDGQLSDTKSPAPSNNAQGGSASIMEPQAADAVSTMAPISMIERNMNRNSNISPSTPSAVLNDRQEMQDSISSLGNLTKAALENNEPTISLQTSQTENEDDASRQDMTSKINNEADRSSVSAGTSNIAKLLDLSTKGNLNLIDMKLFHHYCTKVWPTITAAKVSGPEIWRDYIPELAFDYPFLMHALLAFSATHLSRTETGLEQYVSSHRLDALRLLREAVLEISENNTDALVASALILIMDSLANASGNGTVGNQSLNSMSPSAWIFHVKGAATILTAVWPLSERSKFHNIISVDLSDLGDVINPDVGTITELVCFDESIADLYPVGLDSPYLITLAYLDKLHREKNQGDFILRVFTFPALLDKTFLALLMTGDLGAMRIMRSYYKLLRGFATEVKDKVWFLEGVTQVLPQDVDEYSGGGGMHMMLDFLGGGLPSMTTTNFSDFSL
How it was run: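 Universal all-10-mer Agilent arrays, double-stranded by primer extension on fresh or once-stripped slides, were probed with about 100-200 nM GST-tagged yeast transcription factors made by PURExpress. Fluorescent anti-GST detected bound protein, and masliner normalised the scans. E-scores from the Universal PBM Analysis Suite were given to each ungapped eight-base word pooled with its reverse complement.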

| Sequence | PBM E-score |
| --- | --- |
| CGCAAGCA | -0.0774 |
| AGATGACC | -0.302 |
| ATGAAGGC | -0.0722 |
| CTTAACCA | -0.0796 |
| ACGCGAAT | 0.243 |
| GGACTAGA | -0.223 |
| AACTTCTT | 0.0405 |
| CATGTGAC | -0.248 |
| AACATAGA | -0.147 |
| ACCGCAGG | -0.151 |
| GCCTTCGC | -0.106 |
| CGTGCGAA | 0.214 |
| CCATATCC | -0.119 |
| AGGGCGAT | -0.00906 |
| TATATACA | 0.0785 |
| ACCCGGCG | 0.0259 |
| AGCAGACT | -0.026 |
| ACCCAAAA | 0.115 |
| CAAGGCAA | -0.194 |
| GGTACGTA | 0.313 |
| ATAGGTCA | 0.153 |
| AGGGGGTG | -0.227 |
| CGCCTGAA | 0.0954 |
| GAATTTAC | 0.204 |
| ACAATGAC | -0.131 |

| Sequence | PBM E-score |
| --- | --- |
| CTATTTCC | 0.0751 |
| CAGACTGA | -0.0971 |
| CACACCCC | -0.261 |
| ACATACGT | 0.239 |
| AATAACTG | 0.0722 |
| GCTCGAGC | 0.15 |
| ACAGGCTG | -0.153 |
| ACGGGAAA | 0.0455 |
| GACAAGGC | -0.0207 |
| GCGCGGCA | 0.123 |
| TACCGTAA | 0.252 |
| GCTATCGA | -0.0199 |
| AAAGGGTC | 0.00092 |
| AGGGCACG | -0.0167 |
| GTAGTCCA | -0.206 |
| CTCCTCAC | -0.083 |
| CTCAATAA | -0.213 |
| AGTCCAAT | -0.149 |
| TCAACACA | -0.0099 |
| ATACGTTA | 0.302 |
| AACGATAG | 0.404 |
| CTAGCCCC | -0.237 |
| ATCAGAGC | -0.0158 |
| GCACTAGA | -0.157 |
| CCTCGTGC | 0.0326 |

| Sequence | PBM E-score |
| --- | --- |
| CCTCGGAA | 0.228 |
| CAAGCGAC | 0.169 |
| GCTTAGCA | -0.00347 |
| ACTCATAG | -0.257 |
| GATGAACA | -0.0877 |
| CTTGTTTC | 0.033 |
| ATCTTCAT | 0.00644 |
| ACCCTCTA | -0.153 |
| ACATGGAT | -0.22 |
| AACTGCGT | 0.0942 |
| CATCTTTA | 0.111 |
| AAAATTAT | 0.0354 |
| ATAGTCCC | -0.333 |
| ATCCGGAA | -0.0544 |
| AACGACAC | 0.428 |
| GTAGGAAC | 0.13 |
| GAATACCA | -0.116 |
| AAAGGGGC | -0.127 |
| AAGCCGGG | -0.0356 |
| TCCCTACA | -0.0746 |
| CGTTGTGA | 0.143 |
| CCTCTCAC | -0.274 |
| CACAGAAA | 0.0367 |
| CCCAAGTC | -0.187 |
| GACTATGA | -0.0954 |

| Sequence | PBM E-score |
| --- | --- |
| CGGCATAA | 0.114 |
| CTCAGGGC | -0.198 |
| CTGCCTCC | -0.147 |
| TTAACCAA | -0.033 |
| GAAACGCA | -0.059 |
| ACCTTGGC | -0.142 |
| CAAACATG | -0.124 |
| CTTGGTTC | 0.103 |
| ACGTCGTC | 0.206 |
| CACAATAC | 0.0113 |
| AGCCAAAA | -0.178 |
| AGTTCGTA | 0.439 |
| TGCGTCCA | -0.17 |
| CTTCCGCA | 0.0157 |
| ACATATCA | -0.0715 |
| CTGGAAAG | -0.308 |
| CGAGTGGC | 0.104 |
| CTATGGAA | -0.161 |
| ATGCATCC | -0.132 |
| GAATCCTA | -0.0559 |
| CCTGCACA | -0.257 |
| ATGCATAA | -0.194 |
| CCCGGTAC | 0.0958 |
| CTTGGTGC | -0.204 |
| CATTCATA | -0.0226 |

| Sequence | PBM E-score |
| --- | --- |
| ACCCTAAG | -0.108 |
| AAAGCCTA | -0.0945 |
| TCTCTTCA | -0.104 |
| ATGTGTTA | 0.132 |
| CTCCCCAG | -0.176 |
| TAGGTGAA | -0.00337 |
| CTAGGGCA | -0.371 |
| AGTCTCGC | 0.145 |
| AACGGCAA | 0.148 |
| GCGACCAA | 0.0389 |
| CGCGTAAA | 0.354 |
| CAACACTA | 0.00608 |
| AACACATT | 0.0513 |
| AGTTGTCG | 0.0355 |
| GAAATGGA | -0.243 |
| ACTATGCT | 0.0298 |
| AACTCGGG | 0.0291 |
| AGATGTCG | 0.119 |
| ACCCGCGA | -0.0601 |
| CATGGTCG | 0.0506 |
| GGCAACCC | -0.152 |
| AGGCGGCA | -0.182 |
| CCTAAGAC | -0.0917 |
| GAGCAGAA | 0.0585 |
| CGCGCCTA | 0.212 |

| Sequence | PBM E-score |
| --- | --- |
| TGAGTAAA | -0.0329 |
| ACTTGGAT | 0.0694 |
| GGATAGGA | 0.0219 |
| ACAAGGCG | -0.0278 |
| TCGCGCAA | 0.0965 |
| TTAAATAA | -0.00824 |
| CGTGGAGC | -0.0916 |
| CAGGAATG | -0.204 |
| ATCCGTAA | 0.284 |
| AAATTACC | 0.138 |
| AGAGTAGC | -0.15 |
| GAGAAAAC | 0.0251 |
| AAAAAAAT | 0.0605 |
| TGGTAACA | 0.0759 |
| GAAAACGA | 0.263 |
| CTCAGAGC | -0.295 |
| ATAACCGG | -0.0223 |
| AGACTATG | -0.0737 |
| ATGAGTTC | -0.176 |
| GTATTATA | 0.168 |
| AATATAGT | -0.0398 |
| ATATGAAA | 0.0399 |
| ATAATTGG | -0.0531 |
| TATCAGAA | 0.06 |
| TCCGACCA | 0.0761 |

| Sequence | PBM E-score |
| --- | --- |
| CTGCAGTC | -0.0683 |
| AGAGGCTC | -0.0436 |
| CATTAATG | -0.00024 |
| CCACAGTA | 0.0359 |
| ACGGGCAG | 0.0778 |
| ATTTGTTA | 0.0411 |
| GAGATTAA | -0.0122 |
| CGAGCGGA | 0.294 |
| CAGTAATA | 0.088 |
| CAATGCAC | -0.119 |
| GGGACTAC | -0.126 |
| AATATGCC | -0.171 |
| CTTGGTAC | 0.218 |
| CTTTTCAC | -0.0852 |
| CTGATTAA | 0.0129 |
| GACGCAGA | 0.122 |
| GAGTTAAA | 0.0132 |
| GGAAGGAC | -0.163 |
| CATAGATG | -0.237 |
| GGAGAGCA | -0.135 |
| GAGGGCGC | -0.0991 |
| ACCCACAC | 0.11 |
